Experimental data: publication doi:10.1101/2021.08.01.454609

Target: wild-type coilin-CFP / coilin-YFP for FRET in HeLa cells (human), P38432
Assay: FRET or BRET
Conditions: remark: other sources report otherwise

apparent FRET efficiency: 20%
B1: wild-type coilin-CFP / coilin-YFP for FRET in HeLa cells (natural protein)
chain: MAASETVRLRLQFDYPPPATPHCTAFWLLVDLNRCRVVTDLISLIRQRFGFSSGAFLGLYLEGGLLPPAESARLVRDNDCLRVKLEERGVAENSVVISNGDINLSLRKAKKRAFQLEEGEETEPDCKYSKKHWKSRENNNNNEKVLDLEPKAVTDQTVSKKNKRKNKATCGTVGDDNEEAKRKSPKKKEKCEYKKKAKNPKSPKVQAVKDWANQRCSSPKGSARNSLVKAKRKGSVSVCSKESPSSSSESESCDESISDGPSKVTLEARNSSEKLPTELSKEEPSTKNTTADKLAIKLGFSLTPSKGKTSGTTSSSSDSSAESDDQCLMSSSTPECAAGFLKTVGLFAGRGRPGPGLSSQT[about 200 residues not listed]
